Drawing on PubChem BioAssay AID1346428 (National Center for Advancing Translational Sciences (NCATS), 2018), this text covers activation for 23 molecules.

The campaign covered roughly 48,000 compounds. About 1,200 (2.5%) were called active. About 2% were inconclusive and are not listed.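 How the source made its calls: active means activation of at least 60% and not above a set upper limit (about 1 call in 100 departs from these limits); inconclusive means activation of 40% to 60%, or above that upper limit; inactive means activation under 40%.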 The list shows a part of the results.

The assay concerns the target Probable G-protein coupled receptor 32 (Homo sapiens) (UniProt O75388). Description: qHTS for Agonists of Human Resolvin D1 Receptor DRV1. Further: 0% is about no effect. The conditions noted are these: CHO-K1 GPR32 beta-arrestin PathHunter luminescence, 90 min; at 76.9 µM; active compounds read high; zero percent set by DMSO-only wells. Summed up: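 Beta-arrestin recruitment read-out: luminescence from complemented beta-Gal in CHO-K1 GPR32 PathHunter cells, measured 1 h after detection reagent at ambient temperature following 90 min compound exposure at 37 °C; DMSO served as basal (EC0) control.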
Chain of UniProt O75388 (O75388 whole entry, looked up): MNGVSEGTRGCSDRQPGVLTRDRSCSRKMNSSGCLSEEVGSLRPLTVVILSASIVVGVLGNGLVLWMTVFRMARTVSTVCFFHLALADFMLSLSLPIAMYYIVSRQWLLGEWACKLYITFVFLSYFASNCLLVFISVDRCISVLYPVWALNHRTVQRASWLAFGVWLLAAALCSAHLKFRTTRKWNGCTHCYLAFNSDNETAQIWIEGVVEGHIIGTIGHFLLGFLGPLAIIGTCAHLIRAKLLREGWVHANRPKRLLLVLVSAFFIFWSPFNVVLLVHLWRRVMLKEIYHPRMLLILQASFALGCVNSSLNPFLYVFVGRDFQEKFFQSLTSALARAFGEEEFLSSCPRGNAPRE
A general note: qHTS replaces the single test concentration by a dilution series.
For `Cc1ccc(CNS(=O)(=O)c2cc(C(=O)Nc3cccc(C(F)(F)F)c3)ccc2F)cc1`, the activation was inactive: 10.2%.

Turning to `CC(C)(Oc1ccc(Cl)cc1)C(=O)O`, the activation is inactive: -1.94%.

In the case of `Cc1cc(C)c2c(=O)cc(CSc3nnc(COc4ccccc4C)n3C)[nH]c2c1`, the activation was inactive: 24.5%.

As for `Cc1ccc2c(c1)c1c(c(=O)n(-c3ccccc3C)c(=O)n1CC(=O)NCc1ccccc1)n2C`, the activation is inactive: -30%.

Consider `CCOC(=O)c1ccc(N2C(=O)c3n[nH]c(-c4cccs4)c3C2c2ccc(C(C)C)cc2)cc1` (stereo not drawn), for which the activation was inactive: -27.7%.

On to `CN1CCCN=C1COC(=O)C(O)(c1ccccc1)C1CCCCC1` (stereo not drawn), for which the activation is inactive: 4.91%.

For `O=c1cc(-c2ccccc2)c2cc(Cl)c3c(c2o1)CN(Cc1ccccc1)CO3`, the activation was inactive: -8.18%.

Regarding `COc1ccc(CC(=O)NCc2ccc3c(c2)CCN3C(=O)c2ccc(Cl)cc2)cc1OC`, the activation was inactive: 7.75%.

In the case of `CCOC(=O)c1c(Oc2ccc(OC)cc2)nnc(-c2ccccc2)c1-c1ccccc1`, the activation was inactive: -12.7%.

As to `Cc1ccc(OCCCn2c(CCNC(=O)C3CCCCC3)nc3ccccc32)c(C)c1`, the activation is inactive: 11.2%.

Take `COc1ccccc1NC(=O)Cn1c(=O)n(Cc2ccco2)c(=O)c2cccnc21`: the activation was inactive: -7.46%.

Regarding `Cc1cc(-c2ccc(C)c(S(=O)(=O)N(C)c3ccc(C)c(C)c3)c2)on1`, the activation is inactive: -11.6%.

For `COc1ccc(OC)c(NC(=O)CN2C(=O)c3ccccc3Sc3ccc(C(=O)N4CCCC4)cc32)c1`, the activation is inactive: -2.04%.

In the case of `COc1ccc(N(Cc2cccs2)C(=O)Nc2ccccc2)cc1`, the activation is inactive: -24.7%.

Regarding `COc1ccc(C2=CC(c3ccccc3F)n3ncc(C(=O)Nc4ccc(C)cc4)c3N2)cc1` (stereo not drawn), the activation is inactive: -5.12%.

Take `CCC(=O)Nc1ccc(S(=O)(=O)NCc2ccc3c(c2)CCN3C(=O)c2ccc(C)cc2)cc1`: the activation is inactive: -19.8%.

With `CCN(CC)C(=O)c1sc(NC(=O)C(C)Sc2nc(-c3ccccc3)cc(C(F)(F)F)n2)c(C(=O)OC)c1C` (stereo not drawn), the activation was inactive: -39.8%.

Consider `CCOC(=O)c1c(-c2ccccc2)csc1NC(=O)c1nc(S(=O)(=O)CC)ncc1Cl`, for which the activation is inactive: -11.7%.

With `COc1ccccc1Cn1ccn(Cc2c(F)cccc2Cl)c(=O)c1=O`, the activation was inactive: -21.2%.

Regarding `COC(=O)c1ccccc1NC(=O)CCC(=O)N1CCOc2ccccc21`, the activation was inactive: -6.89%.

Turning to `CN(C)c1oc(/C=C/c2ccc(F)cc2)nc1C#N`, the activation is inactive: -12.1%.

In the case of `Cc1cccc(-c2c3c(=O)n(C)c(=O)n(C)c3cn2-c2cc(N)c(Cl)cc2Cl)c1`, the activation is inactive: -21.4%.

`Nc1cc(=O)nc(SCC(=O)Nc2cccc(Cl)c2)n1CCc1ccccc1`: the activation is inactive: -2.15%.
